Results are given in words; binding and its absence hold for the method and conditions named. For part of these data: In cells and extracts the contact can be indirect. Some binding calls cover weakened binding; strength is not graded here. Tags and fused reporters may be left off the sequences shown.
T1: Rpt3 (yeast two-hybrid fusion) (yeast) (UniProt P33298)
T1 sequence: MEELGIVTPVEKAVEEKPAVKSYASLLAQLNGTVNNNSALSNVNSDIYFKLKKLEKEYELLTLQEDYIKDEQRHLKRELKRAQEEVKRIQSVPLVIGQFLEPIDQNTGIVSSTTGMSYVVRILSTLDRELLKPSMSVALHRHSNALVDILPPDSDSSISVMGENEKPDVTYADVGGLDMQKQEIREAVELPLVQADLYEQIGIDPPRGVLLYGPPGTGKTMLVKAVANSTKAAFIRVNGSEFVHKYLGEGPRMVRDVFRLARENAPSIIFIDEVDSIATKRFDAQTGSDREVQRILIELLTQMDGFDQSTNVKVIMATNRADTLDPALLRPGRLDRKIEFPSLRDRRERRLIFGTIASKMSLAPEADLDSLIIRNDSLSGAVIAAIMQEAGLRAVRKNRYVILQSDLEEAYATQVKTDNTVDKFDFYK

T2: Rpt6-NT-MBP (1-140) (yeast) (UniProt Q01939)
T2 sequence: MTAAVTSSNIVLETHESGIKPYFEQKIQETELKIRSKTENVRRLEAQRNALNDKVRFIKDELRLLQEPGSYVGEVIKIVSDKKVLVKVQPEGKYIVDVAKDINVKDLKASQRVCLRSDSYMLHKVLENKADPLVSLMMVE

T3: GST-Rpt6-NT (1-152) (yeast) (UniProt Q01939)
T3 sequence: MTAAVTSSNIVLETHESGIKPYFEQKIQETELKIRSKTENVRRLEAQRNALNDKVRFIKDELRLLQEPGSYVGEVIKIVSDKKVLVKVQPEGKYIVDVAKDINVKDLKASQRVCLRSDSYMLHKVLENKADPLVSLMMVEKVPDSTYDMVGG

T4: GST-Rpt3-NT (1-162) (yeast) (UniProt P33298)
T4 sequence: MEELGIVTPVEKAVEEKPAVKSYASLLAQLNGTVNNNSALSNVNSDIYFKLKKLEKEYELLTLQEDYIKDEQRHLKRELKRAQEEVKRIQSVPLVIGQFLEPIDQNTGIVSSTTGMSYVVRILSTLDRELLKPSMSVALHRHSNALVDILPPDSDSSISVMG


Assays:
[1] = biological target: T1, Rpt3 (yeast two-hybrid fusion) (yeast); test: two-hybrid; GAD and GBD fusions in yeast; growth on medium lacking uracil, leucine and histidine (-ULH), and also adenine (-ULHA) as stringent selection
[2] = biological target: Rpt6 (yeast two-hybrid fusion) (yeast) (UniProt Q01939); test: as above
[3] = biological target: T2, Rpt6-NT-MBP (1-140) (yeast); test: pull-down + SEC; Rpt6-NT-MBP, Rpt3-NT-GST and His-Adc17 coexpressed in E. coli, purified on amylose resin, eluted with maltose, gel filtration on Superdex 200 10/300 GL in 25 mM Tris-HCl pH 8.0, 100 mM NaCl; identity of proteins confirmed by mass spectrometry
[4] = biological target: T3, GST-Rpt6-NT (1-152) (yeast); test: pull-down; the two proteins coexpressed in E. coli, purified on Ni-NTA or glutathione Sepharose 4B; lysis buffer 25 mM Tris-HCl pH 8.0, 300 mM NaCl, 10% glycerol; SDS-PAGE, Coomassie blue
[5] = biological target: T4, GST-Rpt3-NT (1-162) (yeast); test: as above

| binding [1] | binding [2] | binding [3] | binding [4] | binding [5] | Binder |
| --- | --- | --- | --- | --- | --- |
| no binding | binds | – | – | – | Adc17 (yeast two-hybrid fusion) (protein, UniProt Q12513 1-150) MCSAGGIRRPIQIEEFKTAISGMSDMELAQIKTEIENSINHLQRSNARLGKYIAKLEGADDRLEADDSDDLENIDSGDLALYKDSVRENEIVLNNYNERVDALEQETVYRKTGHGKSKHEVEAKDNTNKGPDVDMDNSNVDVVTPNSIFI |
| – | – | binds | binds | no binding | His-Adc17 (protein, UniProt Q12513 1-150) MCSAGGIRRPIQIEEFKTAISGMSDMELAQIKTEIENSINHLQRSNARLGKYIAKLEGADDRLEADDSDDLENIDSGDLALYKDSVRENEIVLNNYNERVDALEQETVYRKTGHGKSKHEVEAKDNTNKGPDVDMDNSNVDVVTPNSIFI |
| – | – | – | no binding | – | His-Adc17 L93D (protein, UniProt Q12513 1-150) MCSAGGIRRPIQIEEFKTAISGMSDMELAQIKTEIENSINHLQRSNARLGKYIAKLEGADDRLEADDSDDLENIDSGDLALYKDSVRENEIVDNNYNERVDALEQETVYRKTGHGKSKHEVEAKDNTNKGPDVDMDNSNVDVVTPNSIFI |

Source: article PMC4148588
